Reference: patent US10299477B2 (priority 2015, dated 2019)

Key:
Format in all cases: in vivo
Botrytis cinerea = assay: Test Example B: Gray mold on tomato; conditions: for Test B control value (gray mold on tomato): preventive, control value class; for Test B (control value class, gray mold on tomato): in vivo
Source text: [Test Example B] Gray Mold on Tomato
Seeds of a test plant (tomato variety: Oogata Fukuju) were planted followed by cultivating until three to five first leaves (true leaves) appeared.

[1] = tested on: Blumeria graminis f sp. hordei; assay: Test Example D: Powdery mildew on barley; conditions: for Test D control value (powdery mildew on barley): preventive, control value class; for Test D (control value class, powdery mildew on barley): in vivo
Source text: [Test Example D] Powdery Mildew on Barley
After the sprayed dilutions were dried, conidia of Blumeria graminis f sp. hordei were inoculated to the plants by shaking off.

Plasmopara viticola = assay: Test Example G: Downy mildew on vine; conditions: for Test G control value (downy mildew on vine): 250 ppm spray (2.5 ml/pot), preventive, control value class; for Test G (control value class): 250 ppm spray; for Test G (control value class, downy mildew on vine): 250 ppm, sprayed 2.5 ml/pot before inoculation
Source text: [Test Example G] Downy Mildew on Vine
Seeds of a test plant (grape variety: Neomuscat) were planted followed by cultivating until three to four first leaves appeared. […] After the sprayed dilutions were dried, a zoosporangia suspension (1-2×10^4 zoosporangia/ml) of Plasmopara viticola was inoculated to the plants by spraying.

Alternaia brassicicola = assay: Test Example C: Alternaria sooty spot on cabbage; conditions: for Test C control value (Alternaria sooty spot on cabbage): preventive, control value class; for Test C (control value class): Alternaria sooty spot on cabbage; for Test C (control value class, Alternaria sooty spot on cabbage): in vivo
Source text: [Test Example C] Alternaria Sooty Spot on Cabbage
Seeds of a test plant (cabbage variety: Shikidori) were planted followed by cultivating until the cotyledons extended.

Puccinia recondita = assay: Test Example E: Brown rust on wheat; conditions: for Test E control value (brown rust on wheat): preventive, control value class; for Test E (control value class, brown rust on wheat): in vivo
Source text: [Test Example E] Brown Rust on Wheat

[2] = Gray mold on tomato, control value=100{1-(n/3)}
[3] = Powdery mildew on barley, control value=100{1-(n/3)}
[4] = Downy mildew on vine, 2.5 ml/pot, evaluated 7-10 days after inoculation
[5] = Brown rust on wheat, control value=100{1-(n/3)}
[6] = gray mold on tomato, Botrytis cinerea, 250 ppm spray
[7] = powdery mildew on barley, 250 ppm spray
[8] = downy mildew on vine, Plasmopara viticola, 7-10 days after inoculation
[9] = brown rust on wheat, Puccinia recondita, 250 ppm spray
[10] = evaluated 7-10 days after inoculation

## Cn1c(-c2c(F)cccc2F)c(-c2ccc(Cl)cc2Cl)cc(Cl)c1=O [Compound 348]
Botrytis cinerea; 250 ppm spray
  Test B control value (gray mold on tomato): L (L shows 50% or less of control values)
[1]; 250 ppm spray
  Test D control value (powdery mildew on barley): L (L shows 50% or less of control values)
Plasmopara viticola; 7-10 days after inoculation
  Test G control value (downy mildew on vine): L (L shows 50% or less of control values)
Alternaia brassicicola; 250 ppm spray
  Test C control value (Alternaria sooty spot on cabbage): L (L shows 50% or less of control values)
Puccinia recondita; 250 ppm spray
  Test E control value (brown rust on wheat): L (L shows 50% or less of control values)

## COc1cc(F)c(-c2c(-c3ccccc3)ccc(=O)n2C)c(F)c1 [Compound 778]
Botrytis cinerea; [2]
  Test B (control value class): H (H shows more than 50% of control values)
[1]; [3]
  Test D (control value class): H (H shows more than 50% of control values)
Plasmopara viticola; [4]
  Test G (control value class): H (H shows more than 50% of control values)
Alternaia brassicicola; control value=100{1-(n/3)}
  Test C (control value class): H (H shows more than 50% of control values)
Puccinia recondita; [5]
  Test E (control value class): H (H shows more than 50% of control values)

## CCn1c(-c2c(F)cccc2F)c(-c2cc(OCCOC)ccc2Cl)ccc1=O [Compound 193]
Botrytis cinerea; 250 ppm spray
  Test B control value (gray mold on tomato): H (H shows more than 50% of control values)
[1]; 250 ppm spray
  Test D control value (powdery mildew on barley): H (H shows more than 50% of control values)
Plasmopara viticola; 7-10 days after inoculation
  Test G control value (downy mildew on vine): H (H shows more than 50% of control values)
Alternaia brassicicola; 250 ppm spray
  Test C control value (Alternaria sooty spot on cabbage): H (H shows more than 50% of control values)
Puccinia recondita; 250 ppm spray
  Test E control value (brown rust on wheat): H (H shows more than 50% of control values)

## Cn1c(-c2c(F)cccc2F)c(-c2cc(Cl)ccc2F)ccc1=O [Compound 524]
Botrytis cinerea; [6]
  Test B (control value class): H (H shows more than 50% of control values)
[1]; [7]
  Test D (control value class): L (L shows 50% or less of control values)
Plasmopara viticola; [8]
  Test G (control value class): L (L shows 50% or less of control values)
Alternaia brassicicola; 250 ppm spray
  Test C (control value class): H (H shows more than 50% of control values)
Puccinia recondita; [9]
  Test E (control value class): H (H shows more than 50% of control values)

## C#CCOc1ccc(Cl)c(-c2ccc(=O)n(CC)c2-c2c(F)cccc2F)c1 [Compound 244]
Botrytis cinerea; 250 ppm spray
  Test B control value (gray mold on tomato): H (H shows more than 50% of control values)
[1]; 250 ppm spray
  Test D control value (powdery mildew on barley): H (H shows more than 50% of control values)
Plasmopara viticola; 7-10 days after inoculation
  Test G control value (downy mildew on vine): L (L shows 50% or less of control values)
Alternaia brassicicola; 250 ppm spray
  Test C control value (Alternaria sooty spot on cabbage): H (H shows more than 50% of control values)
Puccinia recondita; 250 ppm spray
  Test E control value (brown rust on wheat): H (H shows more than 50% of control values)

## COc1ccc(Cl)c(-c2cc(C)c(=O)n(C)c2-c2c(F)cc(F)cc2F)c1 [Compound 726]
Botrytis cinerea
  Test B (control value class, gray mold on tomato): H (H shows more than 50% of control values)
[1]
  Test D (control value class, powdery mildew on barley): H (H shows more than 50% of control values)
Plasmopara viticola; [10]
  Test G (control value class, downy mildew on vine): L (L shows 50% or less of control values)
Alternaia brassicicola
  Test C (control value class, Alternaria sooty spot on cabbage): H (H shows more than 50% of control values)
Puccinia recondita
  Test E (control value class, brown rust on wheat): H (H shows more than 50% of control values)

## Cn1c(-c2c(F)cccc2F)c(-c2cc(OCC3OCCO3)ccc2Cl)ccc1=O [Compound 316]
Botrytis cinerea; 250 ppm spray
  Test B control value (gray mold on tomato): H (H shows more than 50% of control values)
[1]; 250 ppm spray
  Test D control value (powdery mildew on barley): H (H shows more than 50% of control values)
Plasmopara viticola; 7-10 days after inoculation
  Test G control value (downy mildew on vine): L (L shows 50% or less of control values)
Alternaia brassicicola; 250 ppm spray
  Test C control value (Alternaria sooty spot on cabbage): L (L shows 50% or less of control values)
Puccinia recondita; 250 ppm spray
  Test E control value (brown rust on wheat): H (H shows more than 50% of control values)

## Cn1c(-c2c(F)cc(F)cc2F)c(-c2ccccc2)ccc1=O [Compound 777]
Botrytis cinerea; [2]
  Test B (control value class): H (H shows more than 50% of control values)
[1]; [3]
  Test D (control value class): H (H shows more than 50% of control values)
Plasmopara viticola; [4]
  Test G (control value class): H (H shows more than 50% of control values)
Alternaia brassicicola; control value=100{1-(n/3)}
  Test C (control value class): H (H shows more than 50% of control values)
Puccinia recondita; [5]
  Test E (control value class): H (H shows more than 50% of control values)

## CCn1c(-c2c(F)cc(OC)cc2F)c(-c2cc(F)ccc2Cl)ccc1=O [Compound 739]
Botrytis cinerea
  Test B (control value class, gray mold on tomato): H (H shows more than 50% of control values)
[1]
  Test D (control value class, powdery mildew on barley): H (H shows more than 50% of control values)
Plasmopara viticola; [10]
  Test G (control value class, downy mildew on vine): H (H shows more than 50% of control values)
Alternaia brassicicola
  Test C (control value class, Alternaria sooty spot on cabbage): H (H shows more than 50% of control values)
Puccinia recondita
  Test E (control value class, brown rust on wheat): H (H shows more than 50% of control values)

## CCn1c(-c2c(F)cc(F)cc2F)c(-c2ccc(F)cc2Cl)ccc1=O [Compound 575]
Botrytis cinerea
  Test B (control value class, gray mold on tomato): H (H shows more than 50% of control values)
[1]
  Test D (control value class, powdery mildew on barley): H (H shows more than 50% of control values)
Plasmopara viticola; [10]
  Test G (control value class, downy mildew on vine): H (H shows more than 50% of control values)
Alternaia brassicicola
  Test C (control value class, Alternaria sooty spot on cabbage): H (H shows more than 50% of control values)
Puccinia recondita
  Test E (control value class, brown rust on wheat): H (H shows more than 50% of control values)

## CCn1c(-c2c(F)cc(F)cc2F)c(-c2cccc(OC)c2Cl)ccc1=O [Compound 618]
Botrytis cinerea
  Test B (control value class, gray mold on tomato): H (H shows more than 50% of control values)
[1]
  Test D (control value class, powdery mildew on barley): H (H shows more than 50% of control values)
Plasmopara viticola; [10]
  Test G (control value class, downy mildew on vine): H (H shows more than 50% of control values)
Alternaia brassicicola
  Test C (control value class, Alternaria sooty spot on cabbage): H (H shows more than 50% of control values)
Puccinia recondita
  Test E (control value class, brown rust on wheat): H (H shows more than 50% of control values)

## COc1cccc(-c2cc(Br)c(=O)n(C)c2-c2c(F)cccc2F)c1Cl [Compound 786]
Botrytis cinerea; [2]
  Test B (control value class): H (H shows more than 50% of control values)
[1]; [3]
  Test D (control value class): H (H shows more than 50% of control values)
Plasmopara viticola; [4]
  Test G (control value class): H (H shows more than 50% of control values)
Alternaia brassicicola; control value=100{1-(n/3)}
  Test C (control value class): H (H shows more than 50% of control values)
Puccinia recondita; [5]
  Test E (control value class): H (H shows more than 50% of control values)

## CCOc1cc(F)c(-c2c(-c3ccccc3Cl)cc(Br)c(=O)n2CC)c(F)c1 [Compound 703]
Botrytis cinerea
  Test B (control value class, gray mold on tomato): H (H shows more than 50% of control values)
[1]
  Test D (control value class, powdery mildew on barley): H (H shows more than 50% of control values)
Plasmopara viticola; [10]
  Test G (control value class, downy mildew on vine): H (H shows more than 50% of control values)
Alternaia brassicicola
  Test C (control value class, Alternaria sooty spot on cabbage): H (H shows more than 50% of control values)
Puccinia recondita
  Test E (control value class, brown rust on wheat): H (H shows more than 50% of control values)

## CCn1c(-c2c(F)cc(OC)cc2F)c(-c2cc(F)cc(F)c2F)ccc1=O [Compound 548]
Botrytis cinerea; [6]
  Test B (control value class): H (H shows more than 50% of control values)
[1]; [7]
  Test D (control value class): H (H shows more than 50% of control values)
Plasmopara viticola; [8]
  Test G (control value class): L (L shows 50% or less of control values)
Alternaia brassicicola; 250 ppm spray
  Test C (control value class): H (H shows more than 50% of control values)
Puccinia recondita; [9]
  Test E (control value class): H (H shows more than 50% of control values)

## CCn1c(-c2c(F)cc(OC)cc2F)c(-c2cc(F)cc(F)c2)ccc1=O [Compound 790]
Botrytis cinerea; [2]
  Test B (control value class): H (H shows more than 50% of control values)
[1]; [3]
  Test D (control value class): H (H shows more than 50% of control values)
Plasmopara viticola; [4]
  Test G (control value class): H (H shows more than 50% of control values)
Alternaia brassicicola; control value=100{1-(n/3)}
  Test C (control value class): H (H shows more than 50% of control values)
Puccinia recondita; [5]
  Test E (control value class): H (H shows more than 50% of control values)

## COc1ccc(Cl)c(-c2cc(Br)c(=O)n(CC(F)(F)F)c2-c2c(F)cccc2F)c1 [Compound 411]
Botrytis cinerea; [6]
  Test B (control value class): H (H shows more than 50% of control values)
[1]; [7]
  Test D (control value class): H (H shows more than 50% of control values)
Plasmopara viticola; [8]
  Test G (control value class): L (L shows 50% or less of control values)
Alternaia brassicicola; 250 ppm spray
  Test C (control value class): H (H shows more than 50% of control values)
Puccinia recondita; [9]
  Test E (control value class): H (H shows more than 50% of control values)

## CC(C)Oc1ccc(Cl)c(-c2ccc(=O)n(C)c2-c2c(F)cccc2F)c1 [Compound 257]
Botrytis cinerea; 250 ppm spray
  Test B control value (gray mold on tomato): H (H shows more than 50% of control values)
[1]; 250 ppm spray
  Test D control value (powdery mildew on barley): H (H shows more than 50% of control values)
Plasmopara viticola; 7-10 days after inoculation
  Test G control value (downy mildew on vine): L (L shows 50% or less of control values)
Alternaia brassicicola; 250 ppm spray
  Test C control value (Alternaria sooty spot on cabbage): H (H shows more than 50% of control values)
Puccinia recondita; 250 ppm spray
  Test E control value (brown rust on wheat): H (H shows more than 50% of control values)

## O=c1c(Cl)cc(-c2cccc(F)c2Cl)c(-c2c(F)cccc2F)n1CC(F)F [Compound 511]
Botrytis cinerea; [6]
  Test B (control value class): H (H shows more than 50% of control values)
[1]; [7]
  Test D (control value class): H (H shows more than 50% of control values)
Plasmopara viticola; [8]
  Test G (control value class): H (H shows more than 50% of control values)
Alternaia brassicicola; 250 ppm spray
  Test C (control value class): H (H shows more than 50% of control values)
Puccinia recondita; [9]
  Test E (control value class): H (H shows more than 50% of control values)

## CCCCOc1cc(F)c(-c2c(-c3cc(OC)cc(OC)c3Cl)ccc(=O)n2C)c(F)c1 [Compound 282]
Botrytis cinerea; 250 ppm spray
  Test B control value (gray mold on tomato): H (H shows more than 50% of control values)
[1]; 250 ppm spray
  Test D control value (powdery mildew on barley): L (L shows 50% or less of control values)
Plasmopara viticola; 7-10 days after inoculation
  Test G control value (downy mildew on vine): L (L shows 50% or less of control values)
Alternaia brassicicola; 250 ppm spray
  Test C control value (Alternaria sooty spot on cabbage): H (H shows more than 50% of control values)
Puccinia recondita; 250 ppm spray
  Test E control value (brown rust on wheat): H (H shows more than 50% of control values)
